Measurements from patent US20220112258A1 (I MAB BIOPHARMA US, published 2022).

Assays:
[1] = target: T1, IL7R of human primary CD4+ T cells (human, UniProt P16871 21-459); experiment: cell-based or functional assay
T1 sequence (looked up): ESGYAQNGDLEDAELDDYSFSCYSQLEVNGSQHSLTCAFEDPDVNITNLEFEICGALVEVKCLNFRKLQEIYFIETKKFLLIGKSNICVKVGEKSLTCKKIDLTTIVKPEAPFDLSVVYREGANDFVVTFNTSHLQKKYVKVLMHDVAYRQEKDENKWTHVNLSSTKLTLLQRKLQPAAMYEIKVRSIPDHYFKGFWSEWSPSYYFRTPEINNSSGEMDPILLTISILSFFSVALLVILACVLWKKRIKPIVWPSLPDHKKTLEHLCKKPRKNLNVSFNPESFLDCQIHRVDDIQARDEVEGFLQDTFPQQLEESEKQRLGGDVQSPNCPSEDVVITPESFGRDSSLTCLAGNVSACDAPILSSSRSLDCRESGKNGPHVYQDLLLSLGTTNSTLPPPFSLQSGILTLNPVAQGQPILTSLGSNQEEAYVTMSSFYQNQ

[2] = target: T2, recombinant human his-tagged PD-L1 protein (human, UniProt Q9NZQ7 in part); experiment: SPR (Biacore T200), ligand captured on protein A chip, hPDL1-his as analyte
T2 construct: also called hPDL1-his; his-tagged human PD-L1; not shown: his tag
Protocol: (§1) A series of dilutions of human PD-L1 protein were injected over captured antibody at a flow rate of 10 μL/min. […] All the experiments were carried out on a Biacore T200. Data analysis was carried out using Biacore T200 evaluation software.

[3] = target: T3, PD-L1 expressed on cells (Raji-PD-L1; tumor cell lines RKO, HCC1954, HCC827) (human, UniProt Q9NZQ7); experiment: flow cytometry on Raji-PD-L1 cells, PE anti-human IgG Fc, MFI
T3 construct: whole, on cells; also called cell-surface expressed PD-L1; cell surface PD-L1
Protocol: After washing by FACS staining buffer, the PE-conjugated anti-human IgG Fc specific antibody was added to each well and incubated on ice for 30 mins. The MFI of PE were evaluated by FACS Celesta.

[4] = target: T2, recombinant human his-tagged PD-L1 …; experiment: SPR (Biacore T200), fusion molecule captured on protein A chip, his-tagged human PD-L1 injected
Protocol: as §1

[5] = target: T2, recombinant human his-tagged PD-L1 …; experiment: ELISA, his-tagged PDL1 coated, OD450
From the text: Briefly, for ELISA-based binding, his-tagged PDL1 was used as coating protein.

[6] = target: T3, PD-L1 expressed on cells (Raji-PD-L1; …); experiment: flow cytometry on HCC827 lung cancer cells, MFI
[7] = target: T3, PD-L1 expressed on cells (Raji-PD-L1; …); experiment: flow cytometry on RKO colon carcinoma cells, MFI
[8] = target: T3, PD-L1 expressed on cells (Raji-PD-L1; …); experiment: flow cytometry on HCC1954 breast cancer cells, MFI

B1: L1I7^142A Format 2 (anti-PD-L1 version not stated in the passage) (Fc fusion, part only; not given: anti-PD-L1 heavy and light chains, part only)
chain: DCDIEGKDGKQYESVLMVSIDQLLDSMKEIGSNCLNNEFNFFKRHICDANKEGMFLFRAARKLRQFLKMNSTGDFDLHLLKVSEGTTILLNCTGQVKGRKPAALGEAQPTKSLEENKSLKEQKKLNDLCFLKRLLQEIKTCANKILMGTKEH[human IgG1 Fc with changes not listed]
Which fold decrease in EC50 of CD4+ T cell proliferation against L1I7^WT, six donors [1] does the source give for B1 here?
The fold decrease in EC50 of CD4+ T cell proliferation against L1I7^WT, six donors was 200 to 1000 fold.

B2: L1I7^WT(anti-PD-L1 v4) Format 2 (Fc fusion)
heavy: QVQLLESGGGLVQPGGSLRLSCAASGFTFSSYWMSWVRQAPGKGLEWVANIKQDGSEKYYVDSVKGRFTISRDNAKNSLYLQMNSLRAEDTAVYYCARVALWDDAFDIWGQGTMVTVSSASTKGPSVFPLAPSSKSTSGGTAALGCLVKDYFPEPVTVSWNSGALTSGVHTFPAVLQSSGLYSLSSVVTVPSSSLGTQTYICNVNHKPSNTKVDKKVEPKSCQVQLLESGGGLVQPGGSLRLSCAASGFTFSSYWMSWVRQAPGKGLEWVANIKQDGSEKYYVDSVKGRFTISRDNAKNSLYLQMNSLRAEDTAVYYCARVALWDDAFDIWGQGTMVTVSSASTKGPSVFPLAPSSKSTSGGTAALGCLVKDYFPEPVTVSWNSGALTSGVHTFPAVLQSSGLYSLSSVVTVPSSSLGTQTYICNVNHKPSNTKVDKKV[human IgG1 Fc with changes not listed]
chain: DCDIEGKDGKQYESVLMVSIDQLLDSMKEIGSNCLNNEFNFFKRHICDANKEGMFLFRAARKLRQFLKMNSTGDFDLHLLKVSEGTTILLNCTGQVKGRKPAALGEAQPTKSLEENKSLKEQKKLNDLCFLKRLLQEIKTCWNKILMGTKEH[human IgG1 Fc with changes not listed]
light: DIQMTQSPSTLSASVGDRVIITCRASRGISSWLAWYQQKPGKAPNLLISKASSLESGVPSRFSGSGSGTDFTLTISSLQPEDFATYYCQQSSSIPLTFGGGTKVEIKRTVAAPSVFIFPPSDEQLKSGTASVVCLLNNFYPREAKVQWKVDNALQSGNSQESVTEQDSKDSTYSLSSTLTLSKADYEKHKVYACEVTHQGLSSPVTKSFNRGEC
notes: Format 2: Fab-Fab-Fc chain, IL7-Fc chain, two light chains; also called L1I7^WT Format 2
For B2, which Kd [2] is on record?
Its Kd is 0.932 nM.

And the koff [2]?
Its koff is 0.000745 s⁻¹.

What about the kon [2] of the same binder?
The kon was 800000 M⁻¹ s⁻¹.

And the EC50 [3]?
The EC50 was 0.37 nM.

And the Kd [4]?
Its Kd is 0.745 nM.

And the koff [4]?
The koff was 0.000653 s⁻¹.

And the kon [4]?
Its kon is 877000 M⁻¹ s⁻¹.

What about the EC50 [5] of the same binder?
Its EC50 is 0.65 nM.

B3: L1I7^142A (anti-PD-L1 v4) Format 2 (Fc fusion)
heavy: QVQLLESGGGLVQPGGSLRLSCAASGFTFSSYWMSWVRQAPGKGLEWVANIKQDGSEKYYVDSVKGRFTISRDNAKNSLYLQMNSLRAEDTAVYYCARVALWDDAFDIWGQGTMVTVSSASTKGPSVFPLAPSSKSTSGGTAALGCLVKDYFPEPVTVSWNSGALTSGVHTFPAVLQSSGLYSLSSVVTVPSSSLGTQTYICNVNHKPSNTKVDKKVEPKSCQVQLLESGGGLVQPGGSLRLSCAASGFTFSSYWMSWVRQAPGKGLEWVANIKQDGSEKYYVDSVKGRFTISRDNAKNSLYLQMNSLRAEDTAVYYCARVALWDDAFDIWGQGTMVTVSSASTKGPSVFPLAPSSKSTSGGTAALGCLVKDYFPEPVTVSWNSGALTSGVHTFPAVLQSSGLYSLSSVVTVPSSSLGTQTYICNVNHKPSNTKVDKKV[human IgG1 Fc with changes not listed]
chain: DCDIEGKDGKQYESVLMVSIDQLLDSMKEIGSNCLNNEFNFFKRHICDANKEGMFLFRAARKLRQFLKMNSTGDFDLHLLKVSEGTTILLNCTGQVKGRKPAALGEAQPTKSLEENKSLKEQKKLNDLCFLKRLLQEIKTCANKILMGTKEH[human IgG1 Fc with changes not listed]
light: B2 light
notes: Format 2 with IL-7 W142A
What does the source list for B3?
EC50 [3]: 0.29 nM; Kd [4]: 0.741 nM; koff [4]: 0.000709 s⁻¹; kon [4]: 957000 M⁻¹ s⁻¹; EC50 [6]: 0.82 nM; EC50 [5]: 0.81 nM; EC50 [7]: 0.17 nM; EC50 [8]: 0.53 nM

B4: L1I7^142V (anti-PD-L1 v4) Format 2 (Fc fusion)
heavy: QVQLLESGGGLVQPGGSLRLSCAASGFTFSSYWMSWVRQAPGKGLEWVANIKQDGSEKYYVDSVKGRFTISRDNAKNSLYLQMNSLRAEDTAVYYCARVALWDDAFDIWGQGTMVTVSSASTKGPSVFPLAPSSKSTSGGTAALGCLVKDYFPEPVTVSWNSGALTSGVHTFPAVLQSSGLYSLSSVVTVPSSSLGTQTYICNVNHKPSNTKVDKKVEPKSCQVQLLESGGGLVQPGGSLRLSCAASGFTFSSYWMSWVRQAPGKGLEWVANIKQDGSEKYYVDSVKGRFTISRDNAKNSLYLQMNSLRAEDTAVYYCARVALWDDAFDIWGQGTMVTVSSASTKGPSVFPLAPSSKSTSGGTAALGCLVKDYFPEPVTVSWNSGALTSGVHTFPAVLQSSGLYSLSSVVTVPSSSLGTQTYICNVNHKPSNTKVDKKV[human IgG1 Fc with changes not listed]
chain: DCDIEGKDGKQYESVLMVSIDQLLDSMKEIGSNCLNNEFNFFKRHICDANKEGMFLFRAARKLRQFLKMNSTGDFDLHLLKVSEGTTILLNCTGQVKGRKPAALGEAQPTKSLEENKSLKEQKKLNDLCFLKRLLQEIKTCVNKILMGTKEH[human IgG1 Fc with changes not listed]
light: B2 light
notes: Format 2 with IL-7 W142V
Which EC50 [3] does the source give for B4 here?
Its EC50 is 0.25 nM.

And the Kd [4]?
The Kd was 0.734 nM.

What about the koff [4] of the same binder?
The koff was 0.000649 s⁻¹.

What about the kon [4] of the same binder?
The kon was 885000 M⁻¹ s⁻¹.

And the EC50 [5]?
The EC50 was 0.69 nM.
